{"source": "PubChem BioAssay AID624296", "about": "(National Center for Advancing Translational Sciences (NCATS), 2012)", "note": "Where “and” joins values, the source holds several entries; their conditions need not be identical. Equal values may be shown once. The campaign covered roughly 350,000 compounds. About 9,900 (2.8%) were called active. The shares of active, inactive and inconclusive entries below differ from those in the screen. Calls come from the whole dose curve; as a rule, active = well fitted activation curve with a large enough effect; inconclusive = small, poorly fitted or top-dose-only effect; inactive = no such curve, though single readings can be large or run the other way. Where the call is inconclusive, the potency comes from a doubtful curve fit. Potency is the fitted concentration of half-maximal effect; tags give direction and shape of the fitted curve.", "data": [{"assay": "A quantitative high throughput screen for small molecules that induce DNA re-replication in MCF 10a normal breast cells; note: nearly all actives have a fitted effect of over 50% in size.", "conditions": "MCF 10A DNA re-replication, Hoechst nuclear intensity, 48 h; series mostly up to 46.1 µM", "values": [{"smiles": "COc1ccc(NC(=O)CNc2ccccc2C(C)=O)cc1S(=O)(=O)N1CCOCC1", "Potency": "inactive"}, {"smiles": "CC1=C(C(=O)Nc2ccccn2)C(c2cccnc2)n2nnnc2N1", "note": "(stereo not given)", "Potency": "active: 8.2 µM"}, {"smiles": "COC(=O)CC1COc2ccccc2N1S(=O)(=O)c1ccc(OC)cc1", "note": "(stereo not given)", "Potency": "active: 14.6 µM"}, {"smiles": "COc1ccccc1C1CC(c2ccc(Cl)cc2)Nc2nc(N)nn21", "note": "(stereo not given)", "Potency": "inconclusive: 18.4 µM [activator, single point]"}, {"smiles": "COc1cc(OC)cc(C(=O)N2CCN(c3ccc(N4CCOCC4)nn3)CC2)c1", "Potency": "inconclusive: 0.0259 µM [activator, full curve, poor fit]"}, {"smiles": "O=C(Nc1ccc(F)cc1)Nc1cc(S(=O)(=O)N2CCOCC2)ccc1N1CCCC1", "Potency": "inactive"}, {"smiles": "CCOC(=O)c1c(C)[nH]c(C(=O)N(C)Cc2cccc(OC)c2OC)c1C", "Potency": "inactive"}, {"smiles": "Cc1cccc(NC(=O)CSc2nnc(-c3ccco3)c(-c3ccco3)n2)c1", "Potency": "inconclusive: 13 µM [activator, single point]"}, {"smiles": "Cc1cc(C)c(S(=O)(=O)c2ccccc2C)c(OCC(C)(C)C)n1", "Potency": "inconclusive: 2.91 µM [activator, full curve, poor fit]"}, {"smiles": "N#C/C(=N/O)c1nc(-c2ccc(F)cc2)cs1", "Potency": "inconclusive: 25.9 µM [activator, single point]"}, {"smiles": "CCOC(=O)Nc1nc(-c2ccccc2)c(C(=O)c2ccc(Cl)cc2)s1", "Potency": "inconclusive: 1.3 µM [activator, full curve, poor fit]"}, {"smiles": "CC(=O)C1=C(C)NC(=O)CC1c1ccc(Br)cc1", "note": "(stereo not given)", "Potency": "inconclusive: 6.51 µM [activator, single point]"}, {"smiles": "Cc1cnc(C(=O)OCC(=O)N2CCc3ccccc3C2)cn1", "Potency": "inconclusive: 20.6 µM [activator, single point]"}, {"smiles": "CS(=O)(=O)N1CCN(c2ccc([N+](=O)[O-])c(NCc3ccccc3)c2)CC1", "Potency": "inconclusive: 23.1 µM [activator, partial curve, poor fit]"}, {"smiles": "CNc1oc(/C=C/c2ccccc2)nc1C#N", "Potency": "active: 20.6 µM"}, {"smiles": "COCC(=O)Nc1cc(C)cn(Cc2ccc(F)cc2)c1=O", "Potency": "inconclusive: 0.92 µM [activator, single point]"}, {"smiles": "CC(C)C(c1nnnn1C(C)(C)C)N1CCC(Cc2ccccc2)CC1", "note": "(stereo not given)", "Potency": "active: 20.6 µM"}, {"smiles": "Cc1c(C)c(C)c2[nH]c(-c3ccc4c(c3)OCO4)nc2c1C", "Potency": "inconclusive: 23.1 µM [activator, single point]"}, {"smiles": "Clc1ccc(Cn2nc(-c3ccccc3)nc2-c2ccccc2)cc1", "Potency": "inconclusive: 18.4 µM [activator, single point]"}, {"smiles": "COc1ccc(-c2nc(C(N)=O)c3[nH]c(=O)n(-c4cccc(Cl)c4)c3n2)cc1OC", "Potency": "inconclusive: 14.6 µM [activator, single point]"}, {"smiles": "Cc1ccc(CN2CCN(/N=C/c3cccnc3)CC2)cc1", "Potency": "inactive"}, {"smiles": "CSc1ccc(OC2CCCCC2NS(=O)(=O)c2ccccc2)cc1", "note": "(stereo not given)", "Potency": "inconclusive: 25.9 µM [activator, single point]"}, {"smiles": "Cc1ccc(S(=O)(=O)Nc2cccc(C(=O)NCC(c3ccco3)N3CCCCC3)c2)cc1F", "note": "(stereo not given)", "Potency": "inconclusive: 32.6 µM [activator, partial curve, poor fit]"}, {"smiles": "OCC1(Cc2cccc(C(F)(F)F)c2)CCN(Cc2cc3ccccc3o2)CC1", "Potency": "active: 23.1 µM"}, {"smiles": "CCN(CC)CCC[C@H](C)Nc1c2ccc(Cl)cc2nc2ccc(OC)cc12", "Potency": "active: 13.3 µM"}, {"smiles": "Cc1cc(C)cc(NC(=O)CCc2c(C)nn(-c3ccc(N4CCCCC4)nn3)c2C)c1", "Potency": "inconclusive: 11.6 µM [activator, partial curve]"}, {"smiles": "O=c1c(O)c(-c2ccc(O)c(O)c2)oc2cc(O)ccc12", "Potency": "inconclusive: 32.6 µM [activator, partial curve, poor fit]"}, {"smiles": "Cc1cccc(Sc2c(C=O)c3ccccc3n2C)c1", "Potency": "inconclusive: 18.4 µM [activator, partial curve, poor fit]"}, {"smiles": "COc1ccc(/C=C/C(=O)OCC(=O)Nc2cc(C(F)(F)F)ccc2Cl)cc1", "Potency": "inactive"}, {"smiles": "CCc1ccc2nc(NC(=O)c3cc(C)on3)sc2c1", "Potency": "active: 6.51 µM"}, {"smiles": "O=C(CCSc1ccc(Cl)cc1)c1ccco1", "Potency": "inconclusive: 5.17 µM [activator, full curve]"}, {"smiles": "CNS(=O)(=O)Cc1ccc2[nH]cc(CCN(C)C)c2c1", "Potency": "inactive and inconclusive: 23.1 µM [activator, single point]"}, {"smiles": "CCOc1cc(-c2cc(-c3ccc(N)cc3)nc(N)c2C#N)ccc1O", "Potency": "active: 11.6 µM"}, {"smiles": "Cc1cccc(NS(=O)(=O)c2ccc(-c3cnc(C4CC4)o3)cc2)c1", "Potency": "inconclusive: 1.16 µM [activator, partial curve]"}, {"smiles": "COC(=O)c1ccccc1NC(=O)c1cc2n(n1)C(C(F)F)CC(C(F)F)N2", "note": "(stereo not given)", "Potency": "inconclusive: 6.51 µM [activator, single point]"}, {"smiles": "CCCCCCCCNc1ccccc1S(=O)(=O)NCc1ccccc1", "Potency": "active: 5.17 µM"}, {"smiles": "NC(=S)N=Nc1c(O)n(CCCl)c2ccc(Br)cc12", "Potency": "inconclusive: 6.51 µM [activator, single point]"}, {"smiles": "Fc1ccc(COc2ccc(-c3nnco3)cc2)cc1", "Potency": "inconclusive: 6.51 µM [activator, single point]"}, {"smiles": "COc1cccc(/C=C2\\C(=O)N(c3cccc(C)c3)C(=O)c3ccccc32)c1", "Potency": "inconclusive: 18.4 µM [activator, partial curve, poor fit]"}, {"smiles": "CCOC(=O)c1cnc2c(OC)cccc2c1N1CCN(c2ccccc2OC)CC1", "Potency": "inconclusive: 29.1 µM [activator, single point]"}, {"smiles": "O=[N+]([O-])c1ccc(Nc2nccc(Cl)n2)cc1", "Potency": "inconclusive: 29.1 µM [activator, single point]"}, {"smiles": "CCCCC1CCC(C(=O)OC(C)C(=O)Nc2ccc(NC(C)=O)cc2)CC1", "note": "(stereo not given)", "Potency": "inactive"}, {"smiles": "CCOc1ccc(NS(=O)(=O)c2ccc(C(=O)NCC(c3ccc(OC)cc3)N3CCCC3)cc2)cc1", "note": "(stereo not given)", "Potency": "inactive"}, {"smiles": "CC(Nc1nc(-c2ccc(Cl)cc2)cs1)c1nc2cc(Cl)c(N3CCCCC3)cc2n1CCOCCO", "note": "(stereo not given)", "Potency": "inconclusive: 16.4 µM [activator, partial curve, poor fit]"}, {"smiles": "COc1ccc(NC(=O)Cc2nnc(SCC(=O)c3ccccc3)n2C)cc1", "Potency": "inactive"}, {"smiles": "CC(C)Sc1nnc([C@H](Cc2ccccc2)NC(=O)OC(C)(C)C)o1", "Potency": "inactive"}, {"smiles": "COc1cc(F)cc(-c2ccc3c(c2)c(C#Cc2ccsc2)c(-c2cc(OC)cc(OC)c2)n3C)c1", "Potency": "inconclusive: 2.31 µM [activator, full curve, poor fit]"}, {"smiles": "CSCC[C@H](NC(=O)COc1cc2c(c3oc(=O)c(C)c(C)c13)CCC(C)(C)O2)C(=O)O", "Potency": "inconclusive: 5.8 µM [activator, single point]"}, {"smiles": "O=C(NC1(O)C(=O)c2ccccc2C1=O)c1ccc(C(F)(F)F)cc1", "Potency": "inconclusive: 14.6 µM [activator, single point]"}, {"smiles": "COCCn1c(SCC(=O)Nc2ccccc2)nnc1-c1ccoc1C", "Potency": "inactive"}, {"smiles": "CCC1=NN(C(=O)Cc2ccccc2)C(O)(c2ccncc2)C1", "note": "(stereo not given)", "Potency": "inactive"}, {"smiles": "Clc1ccc(-n2nnnc2CN2CCCCC2)cc1Cl", "Potency": "inconclusive: 20.6 µM [activator, partial curve, poor fit]"}, {"smiles": "CCOC(=O)C1(CCc2ccccc2)CCN(C2Cc3ccccc3C2)CC1", "Potency": "inconclusive: 7.94 µM [activator, partial curve]"}, {"smiles": "COc1cc(C)ccc1OCc1cc(C(=O)NC(C)Cn2cncn2)no1", "note": "(stereo not given)", "Potency": "inactive"}, {"smiles": "O=C(CNc1ccccc1)N/N=C/c1cc([N+](=O)[O-])ccc1N1CCCC1", "Potency": "inconclusive: 18.4 µM [activator, single point]"}, {"smiles": "O=C(Cc1nc2ccccc2[nH]1)c1cccc([N+](=O)[O-])c1", "Potency": "active: 7.31 µM"}, {"smiles": "O=C(NC(=S)Nc1ccccc1N1CCCC1)c1cccs1", "Potency": "inactive"}, {"smiles": "OC(COc1ccc2c(c1)OCO2)CN1CCc2ccccc2C1", "note": "(stereo not given)", "Potency": "inconclusive: 29.1 µM [activator, single point]"}, {"smiles": "O=C(Nc1cccc2c1CCCC2)c1cc([N+](=O)[O-])ccc1Cl", "Potency": "inconclusive: 25.1 µM [activator, single point]"}, {"smiles": "COCCNC(=O)/C(C#N)=C/c1cccc(OCc2ccccc2)c1", "Potency": "inconclusive: 20.6 µM [activator, single point]"}, {"smiles": "Cc1cccc(OCCn2nnc3ccccc32)c1C", "Potency": "inconclusive: 29.1 µM [activator, single point]"}, {"smiles": "COC(=O)c1c(NC(NC(=O)c2ccccc2)(C(F)(F)F)C(F)(F)F)sc2c1CCN(C)C2", "Potency": "inconclusive: 29.1 µM [activator, single point]"}, {"smiles": "CCOC(=O)N1N=C(C)CC1(O)c1ccc(Cl)cc1", "note": "(stereo not given)", "Potency": "inconclusive: 18.4 µM [activator, single point]"}, {"smiles": "Cc1nc(Nc2ccc(Cl)c(Cl)c2)sc1C(=O)Nc1ccccc1", "Potency": "active: 23.1 µM"}, {"smiles": "O=C(COc1ccc(Cl)cc1Br)N1CCN(c2ncccn2)CC1", "Potency": "inactive"}, {"smiles": "O=C(NCCc1ccc(F)cc1)c1cccc2c1C(=O)c1ccc(N3CCC(Cc4ccccc4)CC3)cc1S2(=O)=O", "Potency": "inconclusive: 16.4 µM [activator, partial curve, poor fit]"}, {"smiles": "COc1cccc(OC)c1CNC(=O)C1CCC(=O)N(CC2CCCCC2)C1", "note": "(stereo not given)", "Potency": "inactive"}, {"smiles": "CCc1ccc(NC(=O)C[n+]2cc(-c3ccc(C)cc3)n3c2CCC3)cc1", "Potency": "inactive"}, {"smiles": "CCc1ccc(NC(=O)CCC(=O)c2ccccc2)cc1", "Potency": "inconclusive: 3.66 µM [activator, single point]"}, {"smiles": "Cc1cccc(-n2c(=S)[nH]c3nc4c(cc3c2=O)COC(C)(C)C4)c1", "Potency": "inconclusive: 6.51 µM [activator, single point]"}]}]}
